According to the supplement of paper PMC3334620:
In all, about 33,000 sequences were measured (“E-score (-0.5 to 0.5)”: median about -0.017, highest 2% from about 0.3 on). This is one part of the list.

Molecular target: T1, Sut1 (UniProt P53032)
T1 sequence: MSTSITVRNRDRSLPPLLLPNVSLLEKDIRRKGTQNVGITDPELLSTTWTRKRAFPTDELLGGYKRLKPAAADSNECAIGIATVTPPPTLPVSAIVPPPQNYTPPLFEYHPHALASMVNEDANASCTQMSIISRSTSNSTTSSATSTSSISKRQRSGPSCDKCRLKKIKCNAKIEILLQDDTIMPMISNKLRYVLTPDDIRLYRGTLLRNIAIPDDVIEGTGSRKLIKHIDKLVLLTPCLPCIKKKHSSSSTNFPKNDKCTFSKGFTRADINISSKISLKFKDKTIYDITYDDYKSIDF
Test: PBM E-score (8-mer binding enrichment) (E-score (-0.5 to 0.5)); higher = stronger / more preferred TF binding; most listed sequences are background and not binding sites
Conditions: protein concentration: 200 nM; construct: GST-full length
How it was run: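 Universal all-10-mer Agilent arrays, double-stranded by primer extension on fresh or once-stripped slides, were probed with about 100-200 nM GST-tagged yeast transcription factors made by PURExpress. Fluorescent anti-GST detected bound protein, and masliner normalised the scans. E-scores from the Universal PBM Analysis Suite were given to each ungapped eight-base word pooled with its reverse complement.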

Sequence | PBM E-score
AAGCAGTC | -0.152
CGACTGTA | -0.196
ACACCGGC | 0.0168
CTTCACTA | 0.252
TAGTGCCA | -0.281
ACCGAGGA | 0.015
ACGCTAGA | -0.129
GGGAAAGA | 0.00082
TAAAGATA | 0.276
GGGTGCAA | -0.0357
AAAGACTT | 0.0016
ACTGAGCT | 0.0348
CTGAGATA | 0.193
GTCAATGA | -0.158
AAAATGCG | 0.104
CAAGGCGC | -0.0735
AGTCGTCC | -0.11
AAGCATAC | 0.164
ACTGCCAC | -0.161
GGAGCATA | 0.0974
GTTTTCAA | 0.222
ACTTGGTC | 0.183

Sequence | PBM E-score
ACTATGGG | -0.155
CACCGTTC | -0.0932
CCGCCACG | -0.0608
ATCATGGC | -0.0732
ACATGTCG | -0.0156
GGCGCTGA | -0.0911
AATCGTTA | 0.141
ATATGCCC | -0.19
TCCACGGA | 0.268
ATAGGAAG | -0.0472
ATGCCAGG | -0.214
AGGAACTA | 0.00457
CGTGATCA | -0.101
ACTGAGGG | -0.268
CTATCATC | 0.0847
CGGTCCAA | -0.113
ATAAAGCA | 0.114
ATATCAAG | 0.247
CCCCTGAG | -0.303
AGATGTAA | 0.154
CATACAGG | 0.111
CTCGCAGC | -0.165

Sequence | PBM E-score
CGACATAA | 0.164
GAAGTTGC | -0.0944
AGCTATAC | -0.0483
ACCGATGG | -0.0629
ACGTGTTG | -0.00182
CGTCCCAG | -0.242
GTAGGCCA | -0.129
CAGTGGCG | -0.211
AGATGCTC | 0.0658
CGCATGCC | 0.00842
CACGATCA | 0.0539
ACCTGCGG | -0.0399
AGGTACTC | 0.103
ATGGCTCA | -0.166
AATGTCCT | -0.0934
AGCTGAAA | 0.205
AGACCTCA | -0.176
AACCTGAC | -0.0838
AGGACTCA | -0.114
GACGACTC | -0.128
CCCAACGA | -0.175
ACCTTAGT | 0.0269

Sequence | PBM E-score
CCAACGCA | -0.0662
TAAGCAGA | -0.025
ACTCGTGC | 0.0028
AGTCGGCG | 0.0144
GAAGTTTA | 0.319
GAGGGATC | -0.446
CCCAGGGC | -0.323
GGTCAAAA | -0.0216
CATGGCTC | -0.0594
CATGTGAA | -0.0622
CCAATGTC | -0.0534
ACCGGACC | 0.364
AAAAGGAA | 0.227
GGGCCAAC | -0.129
CTTTGGCA | -0.273
AACAGGAT | -0.268
CTACCTAA | 0.00881
GGAATGTA | 0.271
GACTCTGC | -0.116
AAAACTAC | 0.292
